The source of these data is the RNAGym collection of RNA variant scans (doi:10.1101/gad.245936.114).

The chains are these.
B1: tRNA (parent)
chain: CUCUCGGUAGCCAAGUUGGUUUAAGGCGCAAGACUUUAAUUUAUCACUACGAAAUCUUGAGAUCGGGCGUUCGACUCGCCCCCGGGAGAUUUUUUCCUCGAGCAA

Variants at the floor of the assay are shown more often than the library holds them. Bounds are passed on as bounds.

This data set covers variants of B1. As to the kind of experiment: nonsense suppression (GFP-seq) (ratio to wild type); higher = more function; SUP4oc tRNA, yeast GFP reporter sort-seq. The method in brief: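 Nonsense suppression (GFPSEQ) is the median GFP/RFP ratio of each sorting bin, weighted by the variant's estimated share of cells in that bin and expressed relative to the unmutated parent tRNA. Yeast strains carried genome-integrated variants of an ochre-suppressor tRNA from a library with ~3% random mutations, plus a galactose-driven GFP ochre reporter and RFP, and were grown in raffinose/galactose medium containing 80 mg/L adenine. Cells were sorted into GFP/RFP bins, each bin was Illumina-sequenced (phred ≥30), and variants were kept only with ≥100 reads and ≥30 cells.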
As to A60C G66U G84A G88A, the nonsense suppression is not above 0.026.
Regarding A9G U63A, the nonsense suppression worked out at 0.836.
The result for G25C A60C A74G reads not above 0.026; that for C1A A13C C34A, not above 0.026; that for U4C C11U U21G A31G A87U, not above 0.026.
As for G6A G25C C29G G78C, the figure is not above 0.026.
For C1A G15A G19A A30U U63G U76C, the nonsense suppression was not above 0.026.
Take C5A G6U U20C G86C: the nonsense suppression is not above 0.026.
As to G15U G32A U55A G88U A89U, the nonsense suppression is not above 0.026.
The result for G7U C80A reads not above 0.026.
As for C11A A54C G59A U71C C80A G88C, the figure is not above 0.026; as for A9C A87C A89C, not above 0.026; as for A30C C64A G69U U71A, not above 0.026.
With C29A C56A, the nonsense suppression was not above 0.026.
For the variant A23U G61C, the nonsense suppression is not above 0.026.
As to A9U G10A, the nonsense suppression came to 0.0292.
As for U4A G10A U21G G28C, the nonsense suppression was not above 0.026.
As for U4C C34G C82U, the nonsense suppression turned out to be 0.179.
G15U A54C: the nonsense suppression is not above 0.026.
With U2G A89G, the nonsense suppression is not above 0.026.
With U20A U21C U71C, the nonsense suppression is not above 0.026.
In the case of C5U G85U, the nonsense suppression came out at 0.0303.
Turning to A9U U55C G69C, the nonsense suppression was not above 0.026.
As to C27G U57G C68A, the nonsense suppression was not above 0.026.
As for A31U G78U C80A, the nonsense suppression was not above 0.026.
For the variant U55C U63G, the nonsense suppression is not above 0.026.
Take C5U C83G: the nonsense suppression is not above 0.026.
As for U70C A87G, the figure is not above 0.026.
Consider A14C U21G C68U, for which the nonsense suppression was not above 0.026.
Consider U35G U57C, for which the nonsense suppression was not above 0.026.
The result for U17G U55C G69U reads not above 0.026; that for C12U U70A, 0.048.
Consider C27G G88A, for which the nonsense suppression is not above 0.026.
On to U35G G86A, for which the nonsense suppression is not above 0.026.
With A13G G59U, the nonsense suppression is not above 0.026.
For G59C G67A, the nonsense suppression is not above 0.026.
Regarding C5A C79A, the nonsense suppression is not above 0.026.
With G25C G86A, the nonsense suppression is not above 0.026.
The result for A9C C11A G26C reads not above 0.026; that for A13G G15U U16G U35A G73U, not above 0.026; that for G32C U55G C77G C79A, not above 0.026.
Take G19U C75U C82U: the nonsense suppression is not above 0.026.
As for G26C C64A G85C, the figure is not above 0.026.
For U4C A13U U63G G66A, the nonsense suppression is not above 0.026.
As for C3A G85C, the nonsense suppression was not above 0.026.
As for A24G U57G, the figure is not above 0.026.
Consider G15U A23C A74C, for which the nonsense suppression is not above 0.026.
For the variant A23U U55C A60C G69U G85C, the nonsense suppression is not above 0.026.
As to C12U U57A C79A, the nonsense suppression is not above 0.026.
For G66U U71G, the nonsense suppression is not above 0.026.
Turning to G15A U21C C34G U35G U58A, the nonsense suppression is not above 0.026.
Regarding G26U U71A, the nonsense suppression was not above 0.026.
For the variant C27A C79A C82G, the nonsense suppression is not above 0.026.
A31G G84A: the nonsense suppression was not above 0.026.
As for A24G A31G, the figure is 0.0322; as for A33G G59U, not above 0.026; as for U2G G26C G86A, not above 0.026.
Regarding C12A U20C U76A, the nonsense suppression is not above 0.026.
For the variant C5U, the nonsense suppression stood at 0.096.
As for C29G G59A C80G, the figure is not above 0.026.
The result for G6U G18C G25A reads not above 0.026; that for U8G G25U, not above 0.026; that for C27A G73U A74U G84A, not above 0.026.
The result for A14C G61U reads not above 0.026; that for G18U G66A C83A, not above 0.026.
For the variant G25C U63C G67C G84U, the nonsense suppression is not above 0.026.
For the variant A14C C82A, the nonsense suppression was not above 0.026.
As to A33U A60C U70C U71A, the nonsense suppression was not above 0.026.
As for C27U C56U U70C, the figure is not above 0.026.
Regarding G61A G88U, the nonsense suppression is not above 0.026.
Take C1G G6C U63C: the nonsense suppression was not above 0.026.
The result for A24U A89C reads not above 0.026; that for G15C U22G A23C, not above 0.026.
For the variant G66C U71G C83G, the nonsense suppression was not above 0.026.
In the case of A54C U57C G65A U70C A87U, the nonsense suppression is not above 0.026.
As to U17A U71C, the nonsense suppression is not above 0.026.
As for C1A G32C C83U, the figure is not above 0.026.
As to A33U A54G, the nonsense suppression is not above 0.026.
In the case of G7U G18A U21G A24G A54U G65A U70C, the nonsense suppression was not above 0.026.
In the case of G6A A9G U63G C79U, the nonsense suppression is not above 0.026.
The result for U55G U63A G86C reads not above 0.026; that for C5U U71C, not above 0.026; that for C27A A87G, not above 0.026.
U8A G18A G59C C64U C75A C80U: the nonsense suppression is not above 0.026.
For C5G U16G, the nonsense suppression was not above 0.026.
With G19A U20A U63A, the nonsense suppression was not above 0.026.
C29U C56G U58C A60C U63A C72U G84C: the nonsense suppression is not above 0.026.
For the variant G7U U17C C34G, the nonsense suppression is not above 0.026.
In the case of A14G A24U C83A, the nonsense suppression was not above 0.026.
Regarding A30G G67A A74C, the nonsense suppression is not above 0.026.
The result for A13G U16A reads 0.0391; that for U4C C5A G6U A13C G28A A31C, not above 0.026; that for G28U A31G A74C, not above 0.026.
With G26C A31G A62C C80U, the nonsense suppression was not above 0.026.
As to C64U G67U, the nonsense suppression is not above 0.026.
On to U16A G78U, for which the nonsense suppression was 0.188.
On to U16C G18A A24G G65C, for which the nonsense suppression is not above 0.026.
As for G6C G32A, the figure is not above 0.026; as for A9U G32C A33C G59A A62G, not above 0.026; as for G28A A60C G78C G85C, not above 0.026.
On to G6C U63A G69A A74G, for which the nonsense suppression is not above 0.026.
As for A62G C75G, the nonsense suppression came to 0.205.
Take U2C U70G: the nonsense suppression was not above 0.026.
For the variant U17A U58G C75G, the nonsense suppression was not above 0.026.
With C5G G7A A33U, the nonsense suppression was not above 0.026.
A24C G26C G61A: the nonsense suppression is not above 0.026.
As for U55C C82A G85A, the figure is not above 0.026.
Turning to G6A A14G A23C U63A, the nonsense suppression was not above 0.026.
U4C C11A C12U: the nonsense suppression was not above 0.026.
As for A13C A14C G59A G67C, the nonsense suppression was not above 0.026.
On to U21A G26C U58G, for which the nonsense suppression was not above 0.026.
As for G6U G18U G59A A62C G86A, the figure is not above 0.026; as for C79U C81G, not above 0.026.
For C29G U70G, the nonsense suppression was not above 0.026.
With A23C U57G G69C, the nonsense suppression was not above 0.026.
On to A60C C75U G78U, for which the nonsense suppression was not above 0.026.
The result for C1G A9G G18U U22C U63A reads not above 0.026; that for C29U G65U A87G, not above 0.026.
As for C12U G25C U57G C83G, the figure is not above 0.026; as for C1U U4G G10A U21G A24G G59U U70C, not above 0.026.
Turning to U57G C75G, the nonsense suppression is not above 0.026.
Take A33C A54U: the nonsense suppression is not above 0.026.
As for G69C A87U, the figure is not above 0.026.
With C27G A60C, the nonsense suppression was not above 0.026.
Turning to G15A U16C G66A G67A, the nonsense suppression was not above 0.026.
For the variant C3U U21A G32C C56U, the nonsense suppression was not above 0.026.
C56A C64G G88C: the nonsense suppression is not above 0.026.
For the variant U58A U63C, the nonsense suppression was not above 0.026.
Turning to C1A U8A G28A A89C, the nonsense suppression is not above 0.026.
Turning to C1U U63A G67C, the nonsense suppression was not above 0.026.
Regarding C27G A31G, the nonsense suppression is not above 0.026.
Turning to U16C U55C, the nonsense suppression was determined as 0.769.
In the case of C64G G73A C79A, the nonsense suppression was not above 0.026.
The result for C29U U71C reads 0.0323; that for U63C G67A U70C G85C, not above 0.026.
As to C5U U17A G88C, the nonsense suppression was not above 0.026.
As for A30G U58A G69C A74G, the nonsense suppression was not above 0.026.
As to C1U C72G G84U, the nonsense suppression was not above 0.026.
As for A23G C56G, the figure is not above 0.026.
For G7C G10U U21C U58G U71A C75A, the nonsense suppression is not above 0.026.
The result for G7U C34A reads not above 0.026; that for C29A A31U C34A U71A, not above 0.026; that for A9U U63A G65C G69C, not above 0.026.
Take C3G C82G: the nonsense suppression is not above 0.026.
The result for U63C U71G reads not above 0.026.
In the case of G26A U35A, the nonsense suppression was not above 0.026.
As for C11U A54G G65A, the figure is not above 0.026; as for C12U U35A A60C A62C C82U, not above 0.026; as for C5G A14U G26U A30G G73C, not above 0.026.
As for A30G U71C, the nonsense suppression turned out to be 0.035.
The result for C11A U16C A89U reads not above 0.026; that for C29G G61C A74C, not above 0.026; that for A23G C34A G88A, not above 0.026.
For the variant G10U G61C G66A, the nonsense suppression was not above 0.026.
Regarding C5G U58C, the nonsense suppression is not above 0.026.
For U21A C79G, the nonsense suppression was not above 0.026.
As for U2A C11U G28C C34U U55C G69U U70C, the figure is not above 0.026.
Turning to U2A U71A U76A, the nonsense suppression is not above 0.026.
In the case of U2G U8C U22G G61U, the nonsense suppression is not above 0.026.
For C3A G59U G78C, the nonsense suppression is not above 0.026.
For the variant G73A G84U, the nonsense suppression was not above 0.026.
U16A G19A A60C: the nonsense suppression is not above 0.026.
Turning to G10C A23G U76C, the nonsense suppression is not above 0.026.
U21G A31G G67U: the nonsense suppression was not above 0.026.
Turning to G18U G28C C80U, the nonsense suppression is not above 0.026.
As for C3G A9U U55C, the figure is not above 0.026; as for C3U A9U A31U C83U G88A, not above 0.026.
